Assay results: publication PMC4336329 (PLoS ONE, 2015)
Out of some 310,000 compounds screened, about 2,200 (0.71%) showed an effect of 50% or more. The effect is printed as a negative number. Some of the results follow. Where a SMILES comes first, the peptide text is derived from it. [ ]: non-standard residue; d: D form. NMeY = CN[C@@H](Cc1ccc(O)cc1)C(=O)O; NMeF = CN[C@@H](Cc1ccccc1)C(=O)O; 2Abz = Nc1ccccc1C(=O)O

biological target: human ether-à-go-go-related gene (hERG) potassium channel (human, UniProt Q12809); assay: primary screen, population patch clamp on CHO cells stably expressing hERG
Sequence (Q12809 whole entry, looked up): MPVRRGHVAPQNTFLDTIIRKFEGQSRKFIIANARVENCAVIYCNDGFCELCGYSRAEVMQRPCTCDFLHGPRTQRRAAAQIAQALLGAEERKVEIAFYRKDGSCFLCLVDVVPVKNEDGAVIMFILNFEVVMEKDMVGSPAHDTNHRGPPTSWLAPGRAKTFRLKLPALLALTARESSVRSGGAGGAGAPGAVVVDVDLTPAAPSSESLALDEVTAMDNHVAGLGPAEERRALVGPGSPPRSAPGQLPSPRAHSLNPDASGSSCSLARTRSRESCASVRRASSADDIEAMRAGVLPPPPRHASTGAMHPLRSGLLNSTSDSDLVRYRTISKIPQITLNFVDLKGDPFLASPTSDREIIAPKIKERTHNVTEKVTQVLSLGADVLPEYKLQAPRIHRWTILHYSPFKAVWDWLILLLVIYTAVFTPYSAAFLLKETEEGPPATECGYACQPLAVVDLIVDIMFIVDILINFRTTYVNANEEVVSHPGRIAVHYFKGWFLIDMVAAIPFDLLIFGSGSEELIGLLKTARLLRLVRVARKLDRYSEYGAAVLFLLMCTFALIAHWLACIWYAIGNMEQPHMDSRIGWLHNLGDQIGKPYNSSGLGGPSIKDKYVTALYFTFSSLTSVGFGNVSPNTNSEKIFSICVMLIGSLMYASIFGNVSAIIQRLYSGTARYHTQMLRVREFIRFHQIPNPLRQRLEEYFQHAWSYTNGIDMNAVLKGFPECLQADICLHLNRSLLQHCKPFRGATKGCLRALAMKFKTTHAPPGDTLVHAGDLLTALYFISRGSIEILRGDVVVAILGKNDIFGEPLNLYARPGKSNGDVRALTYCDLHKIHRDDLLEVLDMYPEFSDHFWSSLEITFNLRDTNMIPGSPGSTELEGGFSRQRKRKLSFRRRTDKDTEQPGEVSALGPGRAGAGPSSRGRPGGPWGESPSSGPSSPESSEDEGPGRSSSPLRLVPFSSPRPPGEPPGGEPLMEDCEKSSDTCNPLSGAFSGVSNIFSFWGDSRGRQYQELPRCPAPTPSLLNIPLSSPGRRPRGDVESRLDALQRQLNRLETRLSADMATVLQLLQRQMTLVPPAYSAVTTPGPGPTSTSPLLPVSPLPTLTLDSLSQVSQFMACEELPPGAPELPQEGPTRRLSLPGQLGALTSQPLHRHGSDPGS

Structure (SMILES)	hERG current change (%, negative = inhibition) at 1uM [%]
C[C@H](NC(=O)Cn1cncn1)c1ccccc1	9.77
COc1ccc2c(c1)CCc1cn3nc(C)cc3nc1-2	13.8
COc1ccccc1N1CCN(C(=O)CCC(=O)Nc2nnc(C(C)C)s2)CC1	7.37
OCCNC(=S)Nc1ccc2nsnc2c1	23.9
Cc1ccc(Nc2cc(-n3nc(C)cc3C)ncn2)cc1	12.9
O=C(Nc1ccccc1)Nc1cccc(-c2cn3cccnc3n2)c1	38.3
CCOc1ccc(-c2nc(=S)[nH][nH]2)cc1	11
Cc1cccc(Nc2nc(N)c([N+](=O)[O-])c(N3CCN(C)CC3)n2)c1	-21.5
COc1ccc(OC)c(S(=O)(=O)NCc2ccc(N3CCN(C)CC3)cc2)c1	2.16
COC(=O)c1cn(C(=O)c2ccccc2)c2ccccc12	11.2
COc1ccc(-c2cc(-c3ccc(OC)cc3)c(C#N)c(SC)n2)cc1	4.9
CCOC(=O)c1c(-c2ncc(C(F)(F)F)cc2Cl)noc1C	14.2
Cc1nnc(NC(=O)CSc2nnc(Cc3ccccc3)n2-c2ccccc2)s1	20.9
Cc1cc(C)n(Cc2ccc(C(=O)Nc3ccc(Br)cc3C)o2)n1	1.34
COc1ccc(-c2[nH]ncc2CN(C)Cc2cccnc2)c(F)c1	8.1
COc1ccccc1NC(=O)Oc1ccc(NC(=O)c2ccco2)cc1	8.01
O=C(Nc1ccccc1C(=O)N1CCCCC1)C1CCCCC1	1.57
O=C(C1=CC=CN2CCS(=O)(=O)N=C12)N1CCN(c2cccc(Cl)c2)CC1	28.9
CCSc1nnc(NC(=O)C(C)C)s1	8.25
CC(=O)Nc1ccc(-c2nnn(CC(=O)c3ccccc3)n2)cc1Cl	8.22
N/C(CCS(=O)(=O)c1ccc(Cl)cc1)=N\OC(=O)c1ccccc1Cl	-9.9
COc1ccc(CN2[C@@H](CC(=O)O)c3ccc(C(F)(F)F)cc3S2(=O)=O)cc1	-13.2

Structure (SMILES)	hERG current change (%, negative = inhibition) at 1uM [%]
COc1ccc(/C=C/C(=O)Nc2c(C)nn(C)c2C)cc1COc1ccc(Cl)cc1Br	16
O=C(O)C1CC=CCC1C(=O)Nc1cccc(F)c1 (stereo not shown)	10.6
CCCCS(=O)(=O)N1CCCC(C(=O)Oc2ccccc2)C1 (stereo not shown)	10.8
CCCCn1c(-c2csc3ccccc23)n[nH]c1=S	5.98
O=C(NCC1CCCO1)c1ccc2c(c1)OCO2 (stereo not shown)	8.27
CCOc1ccc(S(=O)(=O)NC2CC2)cc1	13.4
Cc1cc(N2CCCCC2)n2ncc(-c3ccc(Cl)cc3)c2n1	10
Cc1ccccc1OCC(=O)Nc1cccc(N(C)S(C)(=O)=O)c1	9.82
CC(=O)Nc1ccc(NC(=O)Cc2ccc(-c3ccccc3)cc2)cc1	15.3
COc1ccc(CCn2c(C)cc(C(=O)CCl)c2C)cc1OC	15.3
CCCCCCC(=O)N/N=C/c1c(O)n(CCCC)c(=S)[nH]c1=O	8.83
O=C(N/N=C/c1sc(=O)[nH]c1-[n+]1ccc2ccccc2c1)c1ccccc1[O-]	16.1
Cn1c(=O)c2c(ncn2CC(=O)N/N=C/c2ccc(Br)s2)n(C)c1=O	4.75
Cc1ccc(C(=O)N/N=C\c2cc3c(cc2Br)OCO3)cn1	10.9
CCOC(=O)c1cc(-c2ccccc2)nn1CC1CC(c2cccc([N+](=O)[O-])c2)=NO1 (stereo not shown)	7.11
CC(=O)CSc1ccc(-c2nc3cc(C)c(C)cc3[nH]2)cn1	20.1
O=C(CNc1cccc(S(=O)(=O)N2CCCC2)c1)Nc1ccc(F)cc1F	10.2
O=C(c1csc2c1CCCC2)N1CCN(c2ccc(F)cc2)CC1	2.84
Cc1ccc(S(=O)(=O)NCCC(=O)Nc2ccc(C)cc2C(=O)c2ccccc2)cc1	-6.94
O=C(Nc1nc(-c2ccccn2)cs1)c1ccc(F)c(S(=O)(=O)N2CCOCC2)c1	5.44
O=C(COc1ccc(Br)cc1)NCc1cn2ccccc2n1	-4.23
COCCn1c(C)cc(C(=O)COC(=O)c2ccc3ncsc3c2)c1C	10.3

Structure (SMILES)	hERG current change (%, negative = inhibition) at 1uM [%]
CN(C)CCNc1nc2sc3c(c2c(=O)n1CCc1ccccc1)CCCCC3	8.83
CCOC(=O)Cc1csc(NC(=S)NC(=O)c2ccccc2Br)n1	10.4
CC(=O)c1c(C)oc2ccc(N(C(C)=O)S(=O)(=O)c3ccc(Br)cc3)cc12	7.68
O=C(Nc1ccc(NC(=O)c2ccccc2F)cc1)c1ccccc1F	17.3
Cc1cc(=O)n2c3ccccc3n(CC(O)CN3CCCCC3)c2c1C#N (stereo not shown)	-13.5
S=C(Nc1ccc(Br)cc1)NC1CCCCC1	5.81
CCOC(=O)C1C(=O)CC(C)(O)C(C(=O)OCC)C1c1ccc2c(c1)OCO2 (stereo not shown)	-0.261
Cc1cc(C)cc(N2C(=O)C3CC=CCC3C2=O)c1 (stereo not shown)	7.16
CCc1ccc2oc(C(=O)NCC(c3ccc(OC)cc3)N3CCCCC3)c(C)c2c1 (stereo not shown)	5.54
COCCn1nnnc1C(c1ccccn1)N1CCN(c2cc(Cl)ccc2C)CC1 (stereo not shown)	7.86
Cc1ccccc1OCCNC(=O)c1ccco1	14
CCOC(=O)c1cnn(-c2cc(C)cc(C)c2)c1N	0.708
NNc1ccc2c(C(F)(F)F)cc(C(F)(F)F)nc2n1	12.4
O=C(CCc1ccccc1)N1CCN(c2ccccc2F)CC1	13
O=C(CCS(=O)(=O)c1ccc(F)cc1)Nc1nnc(-c2cccs2)o1	14.8
Cc1ccc(-c2cc(C(=O)NCCCn3ccnc3)c3cc(Br)ccc3n2)o1	-21.3
CCN(C(=O)COC(=O)Cc1ccccc1)c1c(N)n(Cc2ccccc2)c(=O)[nH]c1=O	17.5
N#CC1=C2SCC(O)(c3ccccc3)N2C(=O)CC1c1ccccc1 (stereo not shown)	2.34
O=C(Nc1ccc2c(c1)OCCO2)N1CCN(c2ccccc2)CC1	-9.73
COc1ccc(N(CC(=O)NCc2ccncc2)S(=O)(=O)c2ccccc2[N+](=O)[O-])c(OC)c1	-1.43
CCOc1cc(-c2ccccc2)nc(N)n1	-1.35
Cc1nn(-c2ccccc2)c(C)c1NC(=O)COc1ccc2ccccc2c1	-11.1

Structure (SMILES)	hERG current change (%, negative = inhibition) at 1uM [%]
Cn1c(=O)c2c(ncn2Cc2cccc(Cl)c2)n(C)c1=O	7.58
Cc1c(N/C=C/C(=O)C(F)(F)F)c(=O)n(-c2ccccc2)n1C	14.7
CCCC(=O)N(CC(=O)Nc1sc(C)c(C)c1C(N)=O)Cc1ccccc1	-5.81
COc1ccc(/C=C(\NC(=O)c2ccccc2)C(=O)NCC2CCCO2)cc1 (stereo not shown)	7.36
Cc1ccccc1C#N	19.9
Fc1ccc(CN2CCCN(Cc3nc(-c4ccc5c(c4)OCO5)no3)CC2)cc1	-4.38
CCOC(=O)[C@H]1[C@H]2COc3ccccc3[C@@H]2N2C(=O)c3ccc(Cl)cc3NC(=O)[C@@]12C	12.6
Cc1ccc(C(=O)NNC(=O)C2CCN(c3nc(C)cc(C)n3)CC2)cc1	11.4
Cc1ccccc1OCC(=O)Nc1cc(S(=O)(=O)N2CCCCC2)ccc1N1CCN(C)CC1	10.6
O=c1cc(CN2CCN(c3ccccc3O)CC2)nc2sccn12	15.8
CC(NC(=O)c1cccs1)c1ccccc1 (stereo not shown)	14.6
COc1cccc(CNC(=O)CS(=O)(=O)Cc2nc(-c3ccc(C)cc3)oc2C)c1OC	12.6
CC1CCC(NC(=O)C(=O)Nc2ccc3c(c2)OCO3)CC1 (stereo not shown)	17.7
Cc1cccc(OCc2nnc(N)s2)c1	0.653
CC1CCN(c2c(NCC3CCC(C(=O)NCCc4ccc(Cl)cc4)CC3)c(=O)c2=O)CC1 (stereo not shown)	-2.69
Cc1ccc(S(=O)(=O)N2CCCOC2CNC(=O)C(=O)NCc2ccc3c(c2)OCO3)cc1 (stereo not shown)	4.55
CC(C)C[C@@H]1NC(=O)[C@H](Cc2ccccc2)N(C)C(=O)[C@H](C)NC(=O)c2ccccc2NC(=O)[C@H](Cc2ccc(O)cc2)N(C)C1=O (cyclo([2Abz]A[NMeF]L[NMeY]))	5.8
Cc1cccc(C)c1NC(=O)CN(C)CC(=O)Nc1ccc(C#N)c(Cl)c1	4.68
CC1CCCN(c2ccc(C(=O)OCn3nnc4ccccc4c3=O)cc2[N+](=O)[O-])C1 (stereo not shown)	11.1
Cc1ccc(NC(=O)CCn2nnc3ccccc32)c(C)c1	6.38
COc1ccc(C(=O)NC2(C(F)(F)F)N=C3SCCN3C2=O)cc1 (stereo not shown)	14.4
Cc1ccc(N2C(=O)/C(=C/c3ccc(CN(CCC#N)S(C)(=O)=O)o3)C(=O)NC2=S)cc1C	13.4
